{"source": "PubChem BioAssay AID1240", "about": "(Sanford-Burnham Center for Chemical Genomics, 2008)", "note": "Hit rate of the full screen: of about 50,000 compounds, about 800 (1.6%) showed an effect of 50% or more. The list shows a part of the results.", "data": [{"target": "Bcl-2-like protein 10 (Homo sapiens) (UniProt Q9HD36)", "sequence (Q9HD36 whole entry, looked up)": "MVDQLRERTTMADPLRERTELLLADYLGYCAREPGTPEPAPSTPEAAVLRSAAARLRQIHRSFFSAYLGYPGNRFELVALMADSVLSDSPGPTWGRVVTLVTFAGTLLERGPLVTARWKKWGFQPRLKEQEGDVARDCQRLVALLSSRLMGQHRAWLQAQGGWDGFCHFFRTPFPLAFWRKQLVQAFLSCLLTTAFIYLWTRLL", "experiment": "Phenotype converters, Bcl-B/TR3 peptide binding displacement, primary biochemical FP (AID 1240);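 also: 0% = Bcl-B with tracer peptide and DMSO and 100% = tracer peptide lacking Bcl-B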", "conditions": "GST-Bcl-B / FITC-TR3 peptide fluorescence polarization; stronger effect = higher value; compound at 3.75 mg/L", "units": {"displacement": "%"}, "values": [{"compound": "COc1ccccc1C(=O)N1CCN(Cc2ccncc2)CC1", "displacement": -7.2}, {"compound": "c1ccc(-c2nnc(NCc3nc4ccccc4[nH]3)c3ccccc23)cc1", "displacement": -3.9}, {"compound": "O=C(Nc1c(C(=O)NCCc2ccccc2)cnn1-c1ccccc1)c1cccc(F)c1", "displacement": 0.8}, {"compound": "COc1cc(/C=N\\N2CCN(c3ccccc3)CC2)ccc1O", "displacement": 1.8}, {"compound": "COc1ccccc1NC(=O)c1c(NC(=O)Cc2ccccc2)sc2c1CCC2", "displacement": -8.5}, {"compound": "C=CCOC(=O)C1=C(C)N(CC)C(=O)NC1c1cc(Br)c(O)c(OC)c1", "note": "(stereo not drawn)", "displacement": 5.6}, {"compound": "CCOC(=O)c1ccc(N2C(=O)CC(NCCc3ccc(OC)cc3)C2=O)cc1", "note": "(stereo not drawn)", "displacement": 12.9}, {"compound": "CCOC(=O)c1c(NC(=O)C2CC2)sc(C(=O)Nc2ccc(OC)cc2OC)c1C", "displacement": -1.2}, {"compound": "Cc1ccc(N=Cc2c(C(F)(F)F)[nH]n(-c3ccccc3)c2=O)cc1", "displacement": -3.8}, {"compound": "Cc1cc(Cl)cc(C(=O)Nc2ccc([N+](=O)[O-])cc2Cl)c1O", "displacement": 3.3}, {"compound": "CCOC(=O)c1ccc(N2NC(=O)/C(=C/c3ccc(Cl)c([N+](=O)[O-])c3)C2=O)cc1", "displacement": 7.9}, {"compound": "Cc1cc(-c2ccccc2)nc(N/N=C/c2ccc([N+](=O)[O-])cc2)n1", "displacement": -5.1}, {"compound": "CCCS(=O)(=O)c1c(S(=O)(=O)CCC)c2ccccn2c1C(=O)c1ccc(C)cc1", "displacement": -1}, {"compound": "O=C(c1ccc([N+](=O)[O-])cc1)N1CCN(Cc2cccc3ccccc23)CC1", "displacement": -8}, {"compound": "O=C(CSc1nc2ccc(Br)cc2c(=O)n1-c1ccccc1)NC1CCCC1", "displacement": 13.4}, {"compound": "COC(=O)c1ccc(/C=C2\\SC(=S)N(Nc3ccccc3)C2=O)cc1", "displacement": -10}, {"compound": "CCOc1cc(/C=N/NC(=O)Cc2cccc3ccccc23)cc([N+](=O)[O-])c1O", "displacement": 11.8}, {"compound": "O=C1c2cccc3cccc(c23)C(=O)N1/N=C/c1ccccc1O", "displacement": -11.5}, {"compound": "O=S(=O)(CCc1nnc(-c2ccccc2)o1)c1ccc(Cl)cc1", "displacement": 6.9}, {"compound": "O=C(Nc1ccc2ccccc2c1)c1ccc(C(F)(F)F)cc1", "displacement": 3.8}, {"compound": "COc1ccccc1NC(=O)c1c(NC(=O)C(Cl)(Cl)Cl)sc2c1CCC2", "displacement": 10.2}, {"compound": "Cc1cc(C(=O)N/N=C/c2ccc(Br)c([N+](=O)[O-])c2)n[nH]1", "displacement": 5.2}, {"compound": "O=C(NCCNc1ccc(Cl)cc1[N+](=O)[O-])c1ccccc1F", "displacement": -0.6}, {"compound": "COc1cc(C(=O)N2CCN(c3ccc(F)cc3)CC2)cc(OC)c1OC", "displacement": -8}, {"compound": "CCCC(=O)NS(=O)(=O)c1ccc(NS(C)(=O)=O)cc1", "displacement": 9.5}, {"compound": "O=C(CSc1ncn[nH]1)Nc1cccc(C(=O)O)c1", "displacement": -1.5}, {"compound": "Cc1cc(C)cc(CC2CC(=O)N(c3ccc(C)cc3Br)C2=O)c1", "note": "(stereo not drawn)", "displacement": -3.3}, {"compound": "C=CCNC(=O)c1ccc(CN(c2cccc(Cl)c2)S(C)(=O)=O)cc1", "displacement": 9.4}, {"compound": "CCCCOC(=O)CCCN1C(=O)/C(=C/c2ccccc2)SC1=S", "displacement": 45.9}, {"compound": "CC1=C(C(=O)Nc2cccc(Cl)c2C)C(c2cccc([N+](=O)[O-])c2)NC(=O)N1", "note": "(stereo not drawn)", "displacement": -8.4}, {"compound": "Cc1[nH]n(-c2ccccc2)c(=O)c1C=Nc1ccc(Br)cn1", "displacement": 6.5}, {"compound": "C=CCN1C(=O)/C(=C\\c2c(Cl)cccc2Cl)SC1=S", "displacement": 3.9}, {"compound": "CC(=O)NC1=NC(=O)/C(=C/c2cc(Cl)ccc2OCc2c(F)cccc2Cl)S1", "displacement": 112}, {"compound": "CN(C)c1ccc(/C=N/Nc2ncnc3c2cnn3Cc2ccccc2)cc1", "displacement": 5.7}, {"compound": "O=C(N/N=C/c1ccc(-c2cc(C(F)(F)F)ccc2Cl)o1)c1ccncc1", "displacement": 1.2}, {"compound": "COc1ccc(-c2cnc(NC(=O)/C=C/c3cccs3)s2)cc1", "displacement": -44.7}, {"compound": "NS(=O)(=O)c1cccc(NC(=O)COc2ccc(Br)cc2)c1", "displacement": -2.2}, {"compound": "COc1cccc(OC)c1C(=O)Nc1ccccc1C(F)(F)F", "displacement": -5.4}, {"compound": "CC(=O)NC1=NC(=O)/C(=C/c2ccc(C)cc2)S1", "displacement": 118}, {"compound": "Cn1c2c(c(=O)[nH]c1=O)C(c1ccc(Cl)cc1)C1=C(N2)c2ccccc2C1=O", "note": "(stereo not drawn)", "displacement": 1.2}, {"compound": "O=C1Nc2ccccc2C12NN=C(c1ccccc1)S2", "note": "(stereo not drawn)", "displacement": -10.6}, {"compound": "COc1ccc(N(CC(=O)N2CCCCCC2)S(=O)(=O)c2ccccc2[N+](=O)[O-])c(OC)c1", "displacement": -5.7}, {"compound": "O=C(Nc1ccccc1C(=O)NC1CCCCC1)c1ccccc1", "displacement": 0.8}, {"compound": "C=CCc1cc(/C=C2\\C(=O)NC(=O)N(c3ccc(Br)c(C)c3)C2=O)cc(OC)c1O", "displacement": -23.5}, {"compound": "O=C(NCc1ccc(Cl)cc1)C(=O)Nc1ccc([N+](=O)[O-])cc1", "displacement": 9.4}, {"compound": "O=C1c2ccccc2NC(c2ccc(O)cc2)N1Cc1ccco1", "note": "(stereo not drawn)", "displacement": 13.9}, {"compound": "Cc1nc2ccccc2n1CCOc1ccc(Cl)cc1", "displacement": 5.5}, {"compound": "COc1ccc(/C=C/C(=O)Nc2ccc(-c3ccccc3)cc2)cc1OC", "displacement": 0.1}, {"compound": "O=C(NCCCc1ccccc1)C1(c2ccccc2)CCCC1", "displacement": -2.3}, {"compound": "Cc1cccc(NC(=O)CSc2nnc(NC(=O)CN3CCOCC3)s2)c1", "displacement": -8}, {"compound": "CCOc1ccc(-c2c(C)sc(N)c2C(=O)OC(C)C)cc1", "displacement": -9.2}, {"compound": "COc1ccccc1C(=O)NNC(=O)C(c1ccccc1)c1ccccc1", "displacement": 0}, {"compound": "COc1cc(/C=N/NC(=O)c2cccnc2)ccc1OC(=O)c1cccc(Br)c1", "displacement": 14.1}, {"compound": "CC1=C(C(=O)Nc2ccc(Cl)cc2)C(c2cccc(Br)c2)NC(=O)N1", "note": "(stereo not drawn)", "displacement": -7.6}, {"compound": "O=C(Nc1ccc(O)c(-c2nc3ccccc3s2)c1)c1cccc(Cl)c1Cl", "displacement": 3.4}, {"compound": "Cc1nnc(NC(=O)c2ccc(Oc3ccccc3)cc2)s1", "displacement": 8.1}, {"compound": "Cc1c(C(=O)O/N=C(\\N)c2ccc(Br)cc2)cccc1[N+](=O)[O-]", "displacement": 13.4}, {"compound": "O=C(C(c1ccccc1)c1ccccc1)N1CCN(C2CCCC2)CC1", "displacement": -18.5}, {"compound": "COc1ccc(Cl)cc1NC(=O)C1=C(C)NC(=S)NC1c1ccc(OC)c(OC)c1", "note": "(stereo not drawn)", "displacement": 17.6}, {"compound": "COc1cccc(C(=O)Nc2cccc(Cl)c2C)c1", "displacement": -11.6}, {"compound": "CC(=O)Nc1ccccc1NC(=O)COc1ccc(Br)cc1", "displacement": 1.8}, {"compound": "CCOc1ccc(NC2=C(Cl)C(=O)N(c3ccccc3)C2=O)cc1", "displacement": 9.2}, {"compound": "C#CCSc1nnc2c3ccccc3n(CC=C)c2n1", "displacement": -8.9}, {"compound": "O=C(Nc1cccc(Cl)c1)N1CCN(Cc2ccc3c(c2)OCO3)CC1", "displacement": 7.8}, {"compound": "CC1CC(C)CN(C(=O)c2ccc(Cl)cc2Cl)C1", "note": "(stereo not drawn)", "displacement": -3.8}, {"compound": "O=C1C(Cl)=C(c2ccc(Cl)cc2)C(=O)N1c1ccc(Cl)cc1", "displacement": 7.1}, {"compound": "CCN(CC)c1ccc(N2C(=O)c3ccc4c5c(ccc(c35)C2=O)CC4)cc1", "displacement": -4.9}, {"compound": "O=S(=O)(c1cccc2cccnc12)N1CCN(C/C=C/c2ccccc2)CC1", "displacement": -2.5}]}]}
